Test results reported in the supplement of paper PMC12217912.
Some of the results follow. Sequences were assembled here from the parent chain. Inactive controls read about 0.05.

B1: TEV protease; numbered along this chain (parent)
chain: MGESLFKGPRDYNPISSSICHLTNESDGHTTSLYGIGFGPFIITNKHLFRRNNGTLVVQSLHGVFKVKDTTTLQQHLVDGRDMIIIRMPKDFPPFPQKLKFREPQREERICLVTTNFQTKSMSSMVSDTSCTFPSGDGIFWKHWIQTKDGQCGSPLVSTRDGFIVGIHSASNFTNTNNYFTSVPKNFMELLTNQEAQQWVSGWRLNADSVLWGGHKVFMVKPEEPFQPVKEATQL

Variants of: B1
Experiment: raw area under fraction-flipped curve 0-4 h after induction (AUC4h, not background-subtracted), DNA-recorder readout of cleavage of the substrate (dimensionless); higher = more cleavage of the substrate by the protease variant
Settings: temperature: 34 °C; time window: 0-4 h after rhamnose induction
Method: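 In vivo DNA recorder in E. coli TOP10(DE3) ΔrhaA at 34 °C. Each TEVp single-site mutant (parent TEVp 0) is paired with a single-site variant of the 7-mer TEVs (canonical ENLYFQ|S). The substrate sits between flexible linkers in a Bxb1-sfGFP-TEVs-SsrA fusion, so cleavage stabilises Bxb1 and speeds flipping of a recombination array, read by NGS. The value is the raw area under the fraction-flipped curve over 0-4 h after rhamnose induction (AUC4h), with ≥20 reads per time point. It is not background-subtracted; inactive controls average about 0.047.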
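Note: Bxb1 expression induced with 0.2% (w/v) L-rhamnose at OD600 near 0.5, cultures sampled hourly, flipped fraction per protease–substrate barcode pair counted by paired-end Illumina sequencing.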

Row | Variant | area with substrate CNLYFQS | area with substrate GNLYFQS | area with substrate INLYFQS | area with substrate LNLYFQS | area with substrate MNLYFQS | area with substrate PNLYFQS | area with substrate QNLYFQS | area with substrate WNLYFQS | area with substrate FNLYFQS | area with substrate HNLYFQS
1 | T129E | 0.0672 | 0.0866 | 0.0558 | 0.0589 | 0.0682 | 0.0588 | 0.061 | 0.0566 |  | 
2 | T129M | 0.0628 |  |  |  |  | 0.0617 |  | 0.0614 | 0.0608 | 0.0647
3 | S201Y | 0.0626 |  | 0.0576 | 0.05 | 0.0757 | 0.0201 | 0.0691 | 0.063 |  | 
4 | N206A | 0.0449 |  |  |  |  |  |  |  |  | 
5 | N206I | 0.0701 |  |  | 0.0578 |  |  |  | 0.0639 |  | 0.054
6 | N206E | 0.0672 |  | 0.0613 | 0.0807 | 0.0865 | 0.0749 | 0.0601 | 0.0652 |  | 0.0583
7 | T159R | 0.0708 |  |  | 0.0765 |  | 0.0696 |  |  |  | 0.0293
8 | T159F | 0.0711 |  |  |  |  |  |  |  |  | 0.0581
9 | T159A | 0.0788 |  |  | 0.0692 | 0.0689 |  |  | 0.0451 |  | 0.0617
10 | C131Y | 0.0779 |  |  | 0.0672 |  |  |  |  |  | 
11 | C131R | 0.0663 |  |  |  |  |  |  | 0.0709 |  | 
12 | E195V | 0.0594 | 0.0731 | 0.0532 |  |  |  |  | 0.0562 |  | 
13 | E195G | 0.0618 | 0.0635 |  |  | 0.0687 | 0.0536 |  | 0.0395 |  | 0.0596
14 | F187T | 0.0729 |  |  |  |  |  |  |  |  | 0.0791
15 | Q151F | 0.0557 |  |  | 0.0586 |  | 0.0537 |  | 0.0627 |  | 0.052
16 | Q151R | 0.0635 | 0.0724 |  | 0.0621 |  | 0.057 |  |  | 0.057 | 0.0546
17 | G213N | 0.0833 |  |  | 0.047 | 0.0402 | 0.0804 |  | 0.0507 | 0.0496 | 
18 | T147D | 0.0508 |  |  |  |  | 0.065 |  |  |  | 
19 | T147C | 0.0579 |  |  | 0.0732 |  |  |  | 0.0655 |  | 
20 | S154Q | 0.0666 |  | 0.066 | 0.0812 |  | 0.0614 | 0.0478 | 0.0607 | 0.0478 | 0.0147
21 | F180D | 0.047 | 0.0562 | 0.0561 |  |  | 0.0591 |  | 0.0444 | 0.0577 | 0.0481
22 | F180Q | 0.0384 |  |  |  |  |  |  |  |  | 
23 | F180A | 0.0646 |  |  | 0.046 |  | 0.08 |  | 0.0596 |  | 

Row | Variant | area with substrate CNLYFQS | area with substrate GNLYFQS | area with substrate INLYFQS | area with substrate LNLYFQS | area with substrate MNLYFQS | area with substrate PNLYFQS | area with substrate QNLYFQS | area with substrate WNLYFQS | area with substrate FNLYFQS | area with substrate HNLYFQS
24 | G138C | 0.0497 |  |  |  |  | 0.0666 |  | 0.061 |  | 
25 | N172K | 0.0558 | 0.0624 |  | 0.0665 |  | 0.0794 |  |  |  | 
26 | N172F | 0.0681 |  |  | 0.0545 |  |  |  | 0.035 |  | 0.0657
27 | N172Y | 0.0618 |  |  |  | 0.0472 |  |  | 0.0744 |  | 
28 | L205D | 0.0517 | 0.0491 | 0.0533 |  | 0.0624 |  |  | 0.0696 |  | 
29 | L205A | 0.0635 |  |  |  |  |  |  | 0.046 |  | 0.0604
30 | Y179W | 0.0486 |  | 0.0449 |  | 0.0571 |  |  |  |  | 0.0464
31 | Y179I | 0.0714 |  |  |  | 0.0618 | 0.0627 |  | 0.0472 | 0.0587 | 0.0496
32 | Y179N | 0.0466 | 0.0491 |  |  |  |  |  |  |  | 
33 | Y179V | 0.0758 | 0.0698 | 0.0483 |  | 0.06 | 0.0671 |  | 0.0596 | 0.0621 | 0.0606
34 | D161P | 0.0636 |  |  |  |  | 0.0522 |  | 0.0506 |  | 
35 | G153W | 0.0583 |  |  |  |  |  |  | 0.0581 |  | 0.0452
36 | G153E | 0.0481 |  | 0.0487 | 0.0417 |  |  |  |  | 0.0617 | 0.0516
37 | M188I | 0.0642 |  |  |  |  |  |  | 0.065 |  | 0.0662
38 | W203K | 0.0705 | 0.0634 | 0.0557 | 0.0674 | 0.086 | 0.0517 | 0.0483 | 0.056 | 0.0567 | 0.053
39 | W199V | 0.0795 | 0.0627 | 0.0531 | 0.0728 | 0.07 | 0.0806 |  | 0.0596 | 0.0554 | 0.0662
40 | W199I | 0.0621 |  |  |  |  |  |  | 0.0612 | 0.0756 | 0.0453
41 | F133T | 0.0707 | 0.0749 | 0.0645 | 0.0522 |  | 0.0494 |  |  |  | 0.068
42 | A207L | 0.0599 |  | 0.0681 |  |  |  | 0.0824 | 0.0409 | 0.0641 | 0.0526
43 | N175W | 0.0481 |  |  |  |  | 0.0548 |  |  | 0.0505 | 
44 | Q197N | 0.0696 | 0.0734 |  | 0.054 |  |  |  | 0.0584 |  | 0.0706
45 | Q197F | 0.0517 | 0.0659 | 0.0543 |  | 0.0755 | 0.0634 | 0.0754 |  | 0.0526 | 0.0808

Same assay, conditions: temperature: 34 °C; time window: 0-4 h after rhamnose induction

Row | Variant | area with substrate KNLYFQS | area with substrate TNLYFQS | area with substrate YNLYFQS | area with substrate SNLYFQS | area with substrate VNLYFQS | area with substrate NNLYFQS | area with substrate RNLYFQS
46 | T129M | 0.0621 | 0.0623 | 0.0816 |  |  |  | 
47 | S201Y | 0.0601 |  |  | 0.0678 | 0.0726 |  | 
48 | N206A |  |  |  | 0.0563 | 0.0657 |  | 
49 | N206I |  |  | 0.058 |  |  |  | 
50 | N206E |  | 0.0706 | 0.0659 | 0.0727 |  | 0.0692 | 
51 | T159R |  | 0.0622 |  |  |  | 0.0626 | 0.0905
52 | T159F |  | 0.0596 |  |  |  |  | 
53 | T159A | 0.0441 | 0.0441 |  | 0.0477 |  |  | 
54 | C131Y | 0.0974 |  |  |  |  |  | 0.0857
55 | C131R |  |  | 0.0664 | 0.0651 | 0.0663 | 0.0654 | 
56 | E195V |  | 0.0528 |  | 0.0745 |  |  | 
57 | E195G | 0.0621 | 0.0784 |  |  | 0.0773 |  | 
58 | F187T |  | 0.0473 |  |  |  | 0.0717 | 0.0471
59 | Q151F | 0.0775 | 0.0493 |  |  |  |  | 
60 | Q151R | 0.063 | 0.0635 |  | 0.0526 | 0.0613 | 0.0542 | 0.0763
61 | G213N |  | 0.0603 |  |  |  |  | 
62 | T147D |  |  |  |  |  |  | 0.0642
63 | T147C | 0.0705 |  | 0.0694 |  |  |  | 
64 | S154Q |  |  |  | 0.0518 |  |  | 
65 | F180D |  | 0.0427 | 0.0473 | 0.0369 | 0.0618 |  | 
66 | F180Q |  | 0.0536 |  |  |  |  | 
67 | F180A | 0.0613 | 0.0533 | 0.0512 | 0.104 |  | 0.051 | 0.0526

Row | Variant | area with substrate KNLYFQS | area with substrate TNLYFQS | area with substrate YNLYFQS | area with substrate SNLYFQS | area with substrate VNLYFQS | area with substrate NNLYFQS | area with substrate RNLYFQS
68 | G138C |  | 0.0628 |  | 0.0661 |  |  | 
69 | N172K |  |  |  |  |  | 0.04 | 
70 | N172F |  | 0.0504 |  |  | 0.0599 |  | 
71 | N172Y |  | 0.0656 | 0.0663 |  |  |  | 
72 | L205D |  |  |  |  |  | 0.0556 | 0.0517
73 | L205A |  |  |  | 0.0514 |  |  | 
74 | Y179W |  |  | 0.0657 | 0.0614 |  |  | 
75 | Y179I |  |  | 0.0621 |  | 0.0486 | 0.06 | 
76 | Y179N |  | 0.0512 | 0.0508 |  | 0.0539 |  | 
77 | Y179V | 0.0761 |  |  | 0.0909 |  | 0.0585 | 
78 | D161P |  | 0.0737 |  |  |  |  | 
79 | G153W |  |  | 0.0544 |  | 0.0418 |  | 
80 | G153E |  |  | 0.0393 | 0.0686 | 0.0523 | 0.0503 | 
81 | M188I | 0.0763 | 0.0678 | 0.0648 | 0.0708 |  |  | 
82 | W203K |  | 0.0628 | 0.0442 | 0.0451 |  | 0.0596 | 
83 | W199V | 0.065 |  | 0.0652 | 0.0738 | 0.0449 | 0.0529 | 
84 | W199I |  | 0.0593 |  | 0.0468 | 0.0486 |  | 
85 | F133T |  |  | 0.0722 |  |  | 0.0677 | 
86 | A207L | 0.0684 | 0.0614 |  | 0.0602 | 0.0461 |  | 
87 | N175W |  | 0.0635 |  |  |  |  | 
88 | Q197N |  | 0.0737 |  |  |  |  | 
89 | Q197F |  | 0.0559 | 0.0726 | 0.0843 |  | 0.117 | 
